Results taken from PubChem BioAssay AID588591 (National Center for Advancing Translational Sciences (NCATS), 2011).
Hit rate of the full screen: of about 390,000 compounds, about 4,700 (1.2%) were called active. The shares of active, inactive and inconclusive entries below differ from those in the screen. Calls come from the whole dose curve; as a rule, active = well fitted inhibition curve with a large enough effect; inconclusive = small, poorly fitted or top-dose-only effect, or another doubt; inactive = no such curve, though single readings can be large or run the other way. A potency beside an inconclusive call is a rough fit, not a confirmed value.

These molecules were tested against DNA polymerase eta (Homo sapiens) (UniProt Q9Y253) (assay: qHTS for Inhibitors of Polymerase Eta). Conditions: recombinant Pol eta, fluorescent DNA replication assay; series mostly up to 114 µM; activity change, negative = inhibition: at the top concentration.
Procedure, shortened: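 Fluorescent replication assay: 50 nM final substrate added after a 15 min room-temperature compound preincubation with 10 nM enzyme. Signal taken at 0 min and again at 10 min.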
% is set by controls: 0 for no effect and ±100 for the full control effect; potency is the fitted concentration of half-maximal effect; tags give direction and shape of the fitted curve.

Sequence of UniProt Q9Y253 (Q9Y253 whole entry, looked up): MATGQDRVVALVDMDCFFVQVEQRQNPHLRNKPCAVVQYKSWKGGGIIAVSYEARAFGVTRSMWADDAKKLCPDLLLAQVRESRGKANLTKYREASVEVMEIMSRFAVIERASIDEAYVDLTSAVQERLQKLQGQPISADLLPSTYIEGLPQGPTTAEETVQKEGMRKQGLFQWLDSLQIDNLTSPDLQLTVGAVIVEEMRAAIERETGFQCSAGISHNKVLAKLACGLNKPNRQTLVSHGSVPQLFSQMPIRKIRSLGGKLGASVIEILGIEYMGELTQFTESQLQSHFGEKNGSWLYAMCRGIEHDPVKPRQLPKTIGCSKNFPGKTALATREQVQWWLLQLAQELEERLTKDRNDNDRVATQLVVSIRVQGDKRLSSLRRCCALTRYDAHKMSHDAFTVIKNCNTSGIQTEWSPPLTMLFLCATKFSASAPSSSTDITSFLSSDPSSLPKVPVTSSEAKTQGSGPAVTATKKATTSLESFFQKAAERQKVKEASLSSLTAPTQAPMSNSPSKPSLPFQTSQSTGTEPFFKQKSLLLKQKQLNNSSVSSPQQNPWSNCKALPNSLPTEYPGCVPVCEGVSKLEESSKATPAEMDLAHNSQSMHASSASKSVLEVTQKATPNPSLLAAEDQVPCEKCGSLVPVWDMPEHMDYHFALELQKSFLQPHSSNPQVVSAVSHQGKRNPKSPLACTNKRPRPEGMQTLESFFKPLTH

| Compound | Potency | activity change, negative = inhibition |
| --- | --- | --- |
| Cc1cccc(CS(=O)(=O)CC2Nc3ccc(C(=O)NCc4ccccc4)cc3NC2=O)c1 (centres undefined) | inconclusive: 89.1 µM [inhibitor, partial curve] |  |
| O=C(CSc1nccn1-c1ccc(Cl)cc1)N1CCCc2ccccc21 | inconclusive: 89.1 µM [inhibitor, partial curve, poor fit] |  |
| Cc1cc(/C=C2\SC(=S)NC2=O)c(C)n1C1CC1 | inconclusive: 89.1 µM [inhibitor, single point] |  |
| CC(=O)NS(=O)(=O)c1ccc(NC(=O)C2C3C=CC(C3)C2C(=O)O)cc1 (centres undefined) | inconclusive: 22.4 µM [inhibitor, partial curve, poor fit] |  |
| COc1ccccc1N1CCN(S(=O)(=O)c2ccc3c(c2)CC(C)N3C(C)=O)CC1 (centres undefined) | inconclusive: 79.4 µM [inhibitor, partial curve, poor fit] |  |
| C=Cc1ccc(CN2CCCN(Cc3ccc(F)cc3)S2(=O)=O)cc1 | inconclusive: 39.8 µM [inhibitor, partial curve, poor fit] |  |
| COc1cc2ccccc2cc1C(=O)OCC(=O)N(C)c1c(N)n(Cc2ccccc2)c(=O)[nH]c1=O |  | inactive: -17.2% |
| Cc1ccc(CNC(=O)c2c[nH]c3ccc(S(=O)(=O)Nc4ccc(C(C)C)cc4)cc3c2=O)cc1 | active: 79.4 µM |  |
| O=C(c1ccc(-n2cncn2)c([N+](=O)[O-])c1)N1CCN(S(=O)(=O)c2ccc(Cl)cc2)CC1 | inconclusive: 89.1 µM [inhibitor, partial curve, poor fit] |  |
| CCN(C(=O)Cc1ccc(NC2=NC3CS(=O)(=O)CC3S2)cc1)c1ccccc1 (centres undefined) |  | inactive: -6.08% |
| COc1ccc2c(c1)c(=O)oc1cc(O)ccc12 |  | inactive: -3.5% |
| COc1ccc(NC(=O)CSc2nc3n[nH]c(C)c3c(=N)n2-c2ccc(Cl)c(C)c2)cc1OC | active: 50.1 µM |  |
| CC1Cc2ccccc2N1S(=O)(=O)c1nnc(NC(=O)c2ccccc2Br)s1 (centres undefined) | inconclusive: 89.1 µM [inhibitor, single point] |  |
| CCC(Sc1nc2ccc(C)cc2[nH]1)C(=O)O (centres undefined) | inconclusive: 112 µM [inhibitor, partial curve, poor fit] |  |
| Cn1c(=O)c2c(nc(NCCc3ccccc3)n2Cc2cccc(Br)c2)n(C)c1=O | inconclusive: 79.4 µM [inhibitor, partial curve, poor fit] |  |
| CCCCN(CC)CCCNC(=O)c1cn(CC(C)C)c(=O)c2c1c1ccccc1n2C | inconclusive: 63.1 µM [inhibitor, partial curve, poor fit] |  |
| CCCN(C(=O)CSc1nc(C2CC2)n(-c2ccccc2)n1)C1CCS(=O)(=O)C1 (centres undefined) | inconclusive: 89.1 µM [inhibitor, single point] |  |
| COC(=O)c1ccc(Cn2cnc3c(sc4nc(N5CCOCC5)c5c(c43)CCCC5)c2=O)o1 | inconclusive: 25.1 µM [inhibitor, partial curve] |  |
| CN(C(=O)CSc1nc2cc([N+](=O)[O-])ccc2n1-c1ccc(F)cc1)C1CCS(=O)(=O)C1 (centres undefined) | inconclusive: 14.1 µM [inhibitor, full curve, poor fit] |  |
| COc1ccc(OCCn2cc(C(=O)C3CCCCC3)c3ccccc32)cc1 | inconclusive: 56.2 µM [inhibitor, partial curve, poor fit] |  |

| Compound | Potency | activity change, negative = inhibition |
| --- | --- | --- |
| COc1ccc(-c2onc(C)c2C)cc1S(=O)(=O)N1c2ccccc2CC1C (centres undefined) | inconclusive: 56.2 µM [inhibitor, partial curve, poor fit] |  |
| Cc1cc(C)n(-c2ccc(C(=O)OCC(=O)c3ccc(Br)s3)cc2)n1 | inconclusive: 15.8 µM [inhibitor, partial curve] |  |
| COc1ccc(NC(=O)/C(C#N)=C/c2ccc(OCc3cc(=O)n4nc(C)sc4n3)cc2)cc1 | inconclusive: 89.1 µM [inhibitor, single point] |  |
| CC(=O)Oc1ccccc1C(=O)C=Cc1cccc([N+](=O)[O-])c1 | inconclusive: 0.708 µM [inhibitor, full curve, poor fit] |  |
| CC(C)[C@H](NS(=O)(=O)c1ccc2c(c1)OCCO2)C(=O)OCC(=O)Nc1ccccc1 | inconclusive: 89.1 µM [inhibitor, partial curve, poor fit] |  |
| COCCCn1c(=O)/c(=C\c2ccccc2OC(C)C)s/c1=C(/C#N)C(=O)Nc1ccc(C(=O)O)cc1 | inconclusive: 44.7 µM [inhibitor, partial curve] |  |
| CCOC(=O)COc1ccc(S(=O)(=O)NCc2ccco2)cc1 | inconclusive: 79.4 µM [inhibitor, partial curve, poor fit] |  |
| O=S1(=O)c2ccccc2N(Cc2ccccc2)c2ccccc21 |  | inactive: 2.31% |
| COC(=O)c1ccc(COc2ccc(/C=N/Nc3nc(C)cc(=O)[nH]3)cc2)cc1 | active: 89.1 µM |  |
| Cn1cccc1C(=O)NNC(=O)c1ccccc1Br | inconclusive: 14.1 µM [inhibitor, full curve, poor fit] |  |
| COc1cc(C2C(C#N)=C(N)Oc3n[nH]c(C)c32)cc2c1OCO2 (centres undefined) | active: 15.8 µM |  |
| Cc1cc(C)c(Cn2c3ccccc3c3cnn(CC(=O)N4CCCCCC4)c(=O)c32)c(C)c1 |  | inactive: -20.1% |
| Cc1cccc(C)c1OCC(=O)Nc1nc(-c2ccc(Br)cc2)ns1 |  | inactive: -21.5% |
| CN(C(=O)c1ccno1)c1nnc(-c2cccnc2)s1 | inconclusive: 22.4 µM [inhibitor, single point] |  |
| COc1ccc(/C=N/NC(=O)c2ccccc2O)cc1Cn1cc([N+](=O)[O-])cn1 |  | inactive: 17.9% |
| O=C(O)/C=C/C(=O)N1Cc2cc3ccccc3nc2C1 | active: 50.1 µM |  |
| COc1ccc(NC(=O)CN(C)CC(=O)Nc2sc3c(c2C#N)CCC3)cc1 | inconclusive: 10 µM [inhibitor, partial curve, poor fit] |  |
| C=C(C(=O)c1ccccc1)C(C)CC(=O)c1ccccc1 (centres undefined) | inconclusive: 28.2 µM [inhibitor, partial curve, poor fit] |  |
| CC(=O)Nc1cccc(C(=O)NC2CCCc3c2cnn3-c2ccc(C(C)(C)C)cc2)c1 (centres undefined) | inconclusive: 89.1 µM [inhibitor, partial curve, poor fit] |  |
